# Source: PubChem BioAssay AID463173 (ICCB-Longwood Screening Facility, Harvard Medical School, 2010)
# Hit rate of the full screen: of about 52,000 compounds, about 4,300 (8.3%) were called active. Rule as the data show it: active = survival mostly below about 52% (no sharp cut-off); inactive = mostly above about 56%. The list shows a part of the results.
# Tested on: DeltatarO mutant
# Assay: growth inhibition of S. aureus wild type versus tarO mutant, primary screen, teichoic acid synthesis inhibitors, RN4220, OD600 (AID 463173)
# Conditions: OD600, 18 h, stronger effect = lower value, screened at 18.75 µg/mL (by protocol)
row,Compound,survival
1,CN(C)c1oc(-c2ccc(COc3ccccc3)o2)nc1C#N,active: 39%
2,COc1ccc(N2CCN(S(=O)(=O)CCNC(=O)c3cc(=O)c4ccccc4o3)CC2)cc1,inactive: 99%
3,Cc1cc(C)cc(NC(=O)CSc2nc(=O)[nH]c3c2CCC3)c1,inactive: 112%
4,COc1cc(NC(=O)Cn2ccn(-c3cc(C)cc(C)c3)c(=O)c2=O)cc(OC)c1,inactive: 71%
5,CC(C)CN(CCNC(=O)c1cn(C)c2ccc(S(=O)(=O)N3CCCCCC3)cc2c1=O)CC(C)C,inactive: 89%
6,COc1ccc(N2CCN(C(=O)c3cccs3)CC2)cc1,inactive: 88%
7,O=C(CN1CCCN(Cc2ccc(F)cc2)S1(=O)=O)Nc1ccc2c(c1)OCCO2,inactive: 112%
8,CC(=O)c1nn(-c2ccc(OC(F)(F)F)cc2)nc1Nc1ccccc1,inactive: 88%
9,CCc1nn(CCCC(=O)NCc2ccc(C)cc2)c(=O)c2cc3occc3n12,inactive: 76%
10,CCCN(CCC)CCCNC(=O)Cn1ncc2c3ccccc3n(Cc3ccccc3F)c2c1=O,inactive: 129%
11,CCOc1ccccc1N(C)C(=O)Cn1nc(Cc2ccncc2)c2ccccc2c1=O,inactive: 92%
12,CCOC(=O)N1CCC(NC(=O)c2cnn(-c3ccc(C)cc3C)c2C2CCN(C(=O)OC(C)(C)C)CC2)CC1,inactive: 124%
13,CC(=O)Nc1cccc(Nc2nc3ccccc3n3c(C)nnc23)c1,inactive: 60%
14,CNS(=O)(=O)c1ccc2c(c1)n(C)c(=O)n2C,inactive: 93%
15,Cc1cccc(C(c2sc3nc(-c4ccco4)nn3c2O)N2CCN(c3ccccc3F)CC2)c1 (stereo not drawn),inactive: 67%
16,CCOC(=O)C1CCCN(S(=O)(=O)c2cc(Br)cc3c2N(C(C)=O)CC3)C1 (stereo not drawn),inactive: 72%
17,COC(=O)c1ccc(NS(=O)(=O)c2ccc3[nH]c4c(c3c2)CCCC4)cc1,active: 6%
18,O=C1C2C3C=CC(C3)C2C(=O)N1Cc1ccccc1 (stereo not drawn),inactive: 99%
19,CCC(=O)N1CCc2cc(S(=O)(=O)NCCC(=O)NCc3ccc(C)cc3)ccc21,inactive: 92%
20,COc1ccccc1C(=O)OCc1cc(=O)n2nc(-c3cccs3)sc2n1,inactive: 76%

row,Compound,survival
1,CCCSc1ncc(Cl)c(C(=O)N(Cc2cccc(Cl)c2)C2CCS(=O)(=O)C2)n1 (stereo not drawn),inactive: 60%
2,CCOc1ccc(-c2cc(NC(=O)Nc3ccc(Cl)cc3)c(C(=O)OC)s2)cc1,inactive: 101%
3,CCOc1ccccc1NC(=S)N1CCC(NC(=O)c2ccco2)CC1,inactive: 98%
4,COc1ccc(OC)c(NC(=O)c2cnc(N3CCCCC3)c3ccccc23)c1,inactive: 81%
5,O=C(NCc1ccco1)C(c1ccccc1)N(C(=O)Cn1nnc2ccccc21)C1CCCC1 (stereo not drawn),inactive: 105%
6,CCOC(=O)c1c(NC(=O)CCCOc2ccc(C(C)(C)C)cc2)sc2c1CCCC2,active: 14%
7,Cc1ccc(-c2noc(-c3ccccc3NC(=O)C3CC(=O)N(c4ccc(C)cc4)C3)n2)cc1 (stereo not drawn),inactive: 48%
8,COc1cc(-c2nc(=S)[nH][nH]2)cc(OC)c1OC,inactive: 99%
9,COc1cc2nc(Nc3cccc(C)c3)nc(N)c2cc1OC,inactive: 67%
10,O=C(Oc1ccc(F)cc1)c1nc(SCc2ccc(F)cc2)ncc1Cl,inactive: 79%
11,CC1=C(C(=O)NCc2ccccc2C)C2(CCCCCC2)OC1=O,inactive: 78%
12,COC(=O)c1sc(-c2ccccc2)cc1NC(=O)Nc1ccc(Cl)cc1,active: 11%
13,CCCCN(Cc1cc2ccccc2[nH]c1=O)C(=O)c1cccc(Cl)c1,inactive: 81%
14,O=C1COc2ccc(-c3cc(-c4ccccc4)c4c(n3)-c3ccccc3OC4)cc2N1,inactive: 79%
15,Cc1nn(-c2ccccc2)c2sc(C(=O)Nc3ccc(Br)cc3)cc12,active: 26%
16,CCc1ccc(NC(=O)[C@H](CSCc2ccccc2)N2Cc3ccccc3C2=O)cc1,inactive: 76%
17,COc1ccc(-c2cc3c(=O)n(CC(=O)Nc4cc(F)ccc4F)ccn3n2)cc1OC,inactive: 84%
18,O=C(NCCc1ccc(Cl)cc1)c1ccc2c(c1)N(Cc1ccc(F)cc1)C(=O)CS2,active: 37%
19,CN(C)c1ccc(-c2nc(-c3cccs3)c(-c3cccs3)[nH]2)cc1,active: 47%
20,COc1cccc(CNC(=O)CCCn2ncn3c(cc4occc43)c2=O)c1,inactive: 84%

row,Compound,survival
1,Cc1ccc(OC(=O)CSc2nnc(-c3cccs3)o2)cc1,inactive: 72%
2,CCn1c(=O)c2sccc2n2c(CCC(=O)N3CCN(c4ccc(C(C)=O)cc4)CC3)nnc12,inactive: 65%
3,Cc1ccccc1C(=O)N(Cc1nc(-c2ccc(Cl)cc2)no1)C(C)C,inactive: 78%
4,CNC(=O)c1c(NC(=O)/C=C/c2ccccc2Cl)sc2c1CCC2,inactive: 89%
5,O=C(Cn1c(-c2cccs2)cc2cc(Cl)ccc21)N1CCN(c2ccccc2F)CC1,inactive: 75%
6,CC(NC(=O)CN(c1ccc(Cl)cc1Cl)S(=O)(=O)c1ccccc1)c1ccccc1 (stereo not drawn),active: 37%
7,CCC(=O)Nc1ccc(CC)cc1-c1nc2ccccc2n(Cc2ccccc2)c1=O,inactive: 66%
8,COc1ccc(C(=O)c2oc3ccccc3c2NC(=O)COc2cccc(C)c2C)cc1,inactive: 76%
9,COc1cc(-c2noc(CCC(=O)Nc3cc(C)ccc3C)n2)cc(OC)c1OC,inactive: 81%
10,COc1ccc(NC(=O)C(Cc2ccccc2)n2cccc2)cc1OC (stereo not drawn),inactive: 79%
11,CCCCS(=O)(=O)/C=C\C1C2C=CC(C2)C1S(=O)(=O)CCCC (stereo not drawn),inactive: 75%
12,Cc1ccccc1Cn1c2ccccc2c2cnn(CC(=O)NCCc3ccccc3)c(=O)c21,inactive: 96%
13,CCOC(=O)CSc1nnc(CNc2cccc(C(F)(F)F)c2)n1CC,inactive: 71%
14,COc1ccc(NC(=O)CCS(=O)(=O)c2ccc3nc(C)sc3c2)cc1Cl,inactive: 44%
15,Cc1ccc(-n2ncc(C(=O)NCCc3c[nH]c4ccccc34)c2C2CCN(C(=O)OC(C)(C)C)CC2)cc1C,inactive: 110%
16,O=C(CN1CCCN(Cc2ccccc2Cl)S1(=O)=O)NCc1ccccc1,inactive: 94%
17,N#C/C=C1\n2c(nc3ccccc32)OC12CCCCC2,inactive: 106%
18,Cc1cccn2c(=O)cc(COc3cccc(NC(=O)COc4ccc(F)cc4)c3)nc12,inactive: 108%
